Measured values taken from the supplement of paper PMC12067230.
The data scatter; read single values as rough.

Assay: amyloid nucleation score relative to library mode (yeast Sup35 reporter selection) (log enrichment difference); higher = more amyloid nucleation; sequences are the first 22 residues of the Bri2 peptide extended by up to 12 random residues
Conditions: random library (experiment): 1;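 active = nucleation score significantly above 0 at FDR 0.05; inactive = not significantly above 0 or absent from output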
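Note: [psi-pin-] Saccharomyces cerevisiae expressing SupN fusions, induced by 100 µM Cu2SO4, selected 7 d at 30 °C without adenine and uracil, scored by deep sequencing of output versus input.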

Question: For EASNCFAIRHFENKFAVETLICTSPPGRGSEQAM, which amyloid nucleation score is on record?
Answer: inactive

Question: For EASNCFAIRHFENKFAVETLICTSQH, which amyloid nucleation score is on record?
Answer: 2.22

Question: With EASNCFAIRHFENKFAVETLICTSRFLSWTLVSS as the sequence, how does the amyloid nucleation score read?
Answer: 0.655

Question: For EASNCFAIRHFENKFAVETLICTSRIHRRESVQT, which amyloid nucleation score is on record?
Answer: 1.05

Question: With EASNCFAIRHFENKFAVETLICTSSLPLSRVSRC as the sequence, how does the amyloid nucleation score read?
Answer: 0.362

Question: Which amyloid nucleation score does the source give for EASNCFAIRHFENKFAVETLICTSVSRGAFGRAG here?
Answer: 5.43

Question: Which amyloid nucleation score does the source give for EASNCFAIRHFENKFAVETLICTSVTRNNSGQAM here?
Answer: 2.56

Question: With EASNCFAIRHFENKFAVETLICTSWHRNRHGFAL as the sequence, how does the amyloid nucleation score read?
Answer: 0.194

Question: For EASNCFAIRHFENKFAVETLICTSWRGKRALPVW, which amyloid nucleation score is on record?
Answer: inactive

Question: For EASNCFAIRHFENKFAVETLICTSWSGNRGMATY, which amyloid nucleation score is on record?
Answer: inactive

Question: With EASNCFAIRHFENKFAVETLICTSYTMIG as the sequence, how does the amyloid nucleation score read?
Answer: inactive

Question: Which amyloid nucleation score does the source give for EASNCFAIRHFENKFAVETLICTSYVGAVRVEGA here?
Answer: inactive

Question: For EASNCFAIRHFENKFAVETLICTT, which amyloid nucleation score is on record?
Answer: 2.95

Question: For EASNCFAIRHFENKFAVETLICTTAAWQG, which amyloid nucleation score is on record?
Answer: -0.59

Question: For EASNCFAIRHFENKFAVETLICTTCVVFSNHMKS, which amyloid nucleation score is on record?
Answer: 7.97

Question: For EASNCFAIRHFENKFAVETLICTTERVSARGVWP, which amyloid nucleation score is on record?
Answer: inactive

Question: Which amyloid nucleation score does the source give for EASNCFAIRHFENKFAVETLICTTGICRTYVQIL here?
Answer: inactive

Question: Which amyloid nucleation score does the source give for EASNCFAIRHFENKFAVETLICTTGRDGCPRERR here?
Answer: -0.243

Question: With EASNCFAIRHFENKFAVETLICTTIYTGRTLNTL as the sequence, how does the amyloid nucleation score read?
Answer: 1.25

Question: With EASNCFAIRHFENKFAVETLICTTKYRM as the sequence, how does the amyloid nucleation score read?
Answer: 2.72

Question: Which amyloid nucleation score does the source give for EASNCFAIRHFENKFAVETLICTTLIKYMFNVVM here?
Answer: inactive

Question: With EASNCFAIRHFENKFAVETLICTTS as the sequence, how does the amyloid nucleation score read?
Answer: 1.37

Question: For EASNCFAIRHFENKFAVETLICTTSEDRKDAVRG, which amyloid nucleation score is on record?
Answer: -0.59

Question: Which amyloid nucleation score does the source give for EASNCFAIRHFENKFAVETLICTTSFSSVMLLIV here?
Answer: inactive

Question: For EASNCFAIRHFENKFAVETLICTTTCGQLWVTFG, which amyloid nucleation score is on record?
Answer: inactive

Question: For EASNCFAIRHFENKFAVETLICTTVGCV, which amyloid nucleation score is on record?
Answer: inactive

Question: For EASNCFAIRHFENKFAVETLICTTVRHLGQPMRG, which amyloid nucleation score is on record?
Answer: 2.73

Question: For EASNCFAIRHFENKFAVETLICTTWLAWDDGRWD, which amyloid nucleation score is on record?
Answer: 2.42

Question: Which amyloid nucleation score does the source give for EASNCFAIRHFENKFAVETLICTTYKMPIAHVQF here?
Answer: inactive

Question: For EASNCFAIRHFENKFAVETLICTVARQTPILQRP, which amyloid nucleation score is on record?
Answer: inactive

Question: With EASNCFAIRHFENKFAVETLICTVCGPSSALGGT as the sequence, how does the amyloid nucleation score read?
Answer: 8.23

Question: With EASNCFAIRHFENKFAVETLICTVCYRPLRMLEV as the sequence, how does the amyloid nucleation score read?
Answer: inactive

Question: Which amyloid nucleation score does the source give for EASNCFAIRHFENKFAVETLICTVEIEGVLCCPF here?
Answer: inactive

Question: With EASNCFAIRHFENKFAVETLICTVFMVK as the sequence, how does the amyloid nucleation score read?
Answer: 2.89

Question: For EASNCFAIRHFENKFAVETLICTVGTLFLVHVAW, which amyloid nucleation score is on record?
Answer: inactive

Question: With EASNCFAIRHFENKFAVETLICTVGVGGMRCRWH as the sequence, how does the amyloid nucleation score read?
Answer: inactive

Question: For EASNCFAIRHFENKFAVETLICTVKLCSLAWESR, which amyloid nucleation score is on record?
Answer: 3.83

Question: For EASNCFAIRHFENKFAVETLICTVLL, which amyloid nucleation score is on record?
Answer: 6.04

Same assay, conditions: random library (experiment): 2

Question: Which amyloid nucleation score does the source give for EASNCFAIRHFENKFAVETLICTSQMGEPDTLGW here?
Answer: 0.607

Question: With EASNCFAIRHFENKFAVETLICTSQNFVVITVEC as the sequence, how does the amyloid nucleation score read?
Answer: inactive

Question: With EASNCFAIRHFENKFAVETLICTSREGNMPAGSV as the sequence, how does the amyloid nucleation score read?
Answer: inactive

Question: For EASNCFAIRHFENKFAVETLICTSSGSRGVVYNM, which amyloid nucleation score is on record?
Answer: inactive

Question: With EASNCFAIRHFENKFAVETLICTSSVERGVDCRE as the sequence, how does the amyloid nucleation score read?
Answer: inactive

Question: With EASNCFAIRHFENKFAVETLICTSTSLQLHIPFS as the sequence, how does the amyloid nucleation score read?
Answer: -0.131

Question: With EASNCFAIRHFENKFAVETLICTSVDAYASDYPS as the sequence, how does the amyloid nucleation score read?
Answer: inactive

Question: For EASNCFAIRHFENKFAVETLICTSVFFGAKYRVS, which amyloid nucleation score is on record?
Answer: inactive

Question: For EASNCFAIRHFENKFAVETLICTSVQDVRIIW, which amyloid nucleation score is on record?
Answer: 2.56

Question: Which amyloid nucleation score does the source give for EASNCFAIRHFENKFAVETLICTSWLNAIWYKIA here?
Answer: inactive

Question: For EASNCFAIRHFENKFAVETLICTSYDKD, which amyloid nucleation score is on record?
Answer: 0

Question: Which amyloid nucleation score does the source give for EASNCFAIRHFENKFAVETLICTTAIIW here?
Answer: 3.42

Question: Which amyloid nucleation score does the source give for EASNCFAIRHFENKFAVETLICTTDNNSLSCTEH here?
Answer: inactive

Question: Which amyloid nucleation score does the source give for EASNCFAIRHFENKFAVETLICTTEFGERSASSV here?
Answer: inactive

Question: With EASNCFAIRHFENKFAVETLICTTFCYPCYVGGL as the sequence, how does the amyloid nucleation score read?
Answer: 5.78

Question: With EASNCFAIRHFENKFAVETLICTTLRYLYSQKLS as the sequence, how does the amyloid nucleation score read?
Answer: inactive

Question: With EASNCFAIRHFENKFAVETLICTTMCLMSLMVVA as the sequence, how does the amyloid nucleation score read?
Answer: inactive

Question: With EASNCFAIRHFENKFAVETLICTTNMRFAWIAAP as the sequence, how does the amyloid nucleation score read?
Answer: 2.93

Question: With EASNCFAIRHFENKFAVETLICTTPGVWRSLRLR as the sequence, how does the amyloid nucleation score read?
Answer: inactive

Question: Which amyloid nucleation score does the source give for EASNCFAIRHFENKFAVETLICTTTSFVLFCLML here?
Answer: inactive

Question: For EASNCFAIRHFENKFAVETLICTTWLSECYRGWV, which amyloid nucleation score is on record?
Answer: -0.157

Question: Which amyloid nucleation score does the source give for EASNCFAIRHFENKFAVETLICTV here?
Answer: -0.184

Question: Which amyloid nucleation score does the source give for EASNCFAIRHFENKFAVETLICTVGDLFNDCLFG here?
Answer: 5.29

Question: Which amyloid nucleation score does the source give for EASNCFAIRHFENKFAVETLICTVIACENMLMGR here?
Answer: inactive

Question: For EASNCFAIRHFENKFAVETLICTVIVVPTFTAWY, which amyloid nucleation score is on record?
Answer: inactive

Question: With EASNCFAIRHFENKFAVETLICTVLLFC as the sequence, how does the amyloid nucleation score read?
Answer: inactive

Question: Which amyloid nucleation score does the source give for EASNCFAIRHFENKFAVETLICTVLSLCEWQSWH here?
Answer: 4.25

Same assay, conditions: random library (experiment): 3

Question: Which amyloid nucleation score does the source give for EASNCFAIRHFENKFAVETLICTSNT here?
Answer: inactive

Question: Which amyloid nucleation score does the source give for EASNCFAIRHFENKFAVETLICTSRSRRVYVFYR here?
Answer: inactive

Question: With EASNCFAIRHFENKFAVETLICTSSARCMSWLVR as the sequence, how does the amyloid nucleation score read?
Answer: inactive

Question: For EASNCFAIRHFENKFAVETLICTSVSNCAPKLDA, which amyloid nucleation score is on record?
Answer: inactive

Question: For EASNCFAIRHFENKFAVETLICTSWRRGWRFWRM, which amyloid nucleation score is on record?
Answer: inactive

Question: Which amyloid nucleation score does the source give for EASNCFAIRHFENKFAVETLICTSWRRWPVTGLR here?
Answer: inactive

Question: For EASNCFAIRHFENKFAVETLICTSYVSRVNALLR, which amyloid nucleation score is on record?
Answer: inactive

Question: With EASNCFAIRHFENKFAVETLICTTAMAPTYEILG as the sequence, how does the amyloid nucleation score read?
Answer: 0.104

Question: Which amyloid nucleation score does the source give for EASNCFAIRHFENKFAVETLICTTATVYAGDDYV here?
Answer: 4.39

Question: Which amyloid nucleation score does the source give for EASNCFAIRHFENKFAVETLICTTEHSNIRCFTS here?
Answer: inactive

Question: With EASNCFAIRHFENKFAVETLICTTPWGFCELCSW as the sequence, how does the amyloid nucleation score read?
Answer: inactive

Question: For EASNCFAIRHFENKFAVETLICTTVGPCKKRFER, which amyloid nucleation score is on record?
Answer: inactive

Question: With EASNCFAIRHFENKFAVETLICTTWNRITAVRSY as the sequence, how does the amyloid nucleation score read?
Answer: inactive

Question: With EASNCFAIRHFENKFAVETLICTVAHRRPLRG as the sequence, how does the amyloid nucleation score read?
Answer: inactive

Question: With EASNCFAIRHFENKFAVETLICTVASW as the sequence, how does the amyloid nucleation score read?
Answer: inactive

Question: Which amyloid nucleation score does the source give for EASNCFAIRHFENKFAVETLICTVDVVASGCDDR here?
Answer: inactive

Question: Which amyloid nucleation score does the source give for EASNCFAIRHFENKFAVETLICTVEQGSV here?
Answer: inactive

Question: Which amyloid nucleation score does the source give for EASNCFAIRHFENKFAVETLICTVFSMFVENSRK here?
Answer: 6.95

Question: Which amyloid nucleation score does the source give for EASNCFAIRHFENKFAVETLICTVGG here?
Answer: inactive

Question: Which amyloid nucleation score does the source give for EASNCFAIRHFENKFAVETLICTVGMLREDRPRA here?
Answer: inactive

Question: Which amyloid nucleation score does the source give for EASNCFAIRHFENKFAVETLICTVLSGHLLWYYP here?
Answer: inactive
